± gives the standard deviation of the averaged measurements. This is one part of the list.
test system: PfAP2-LT AP2 domain (GST-tagged); experiment: gcPBM binding intensity (ln(normalized median fluorescence intensity)); higher = stronger DNA binding
How it was run: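 GST-fused DNA-binding domains of P. falciparum, expressed in E. coli, were applied at about 25 μg on average for 1 h to an Agilent 4 × 180k array of primer-extended double-stranded 36-bp intergenic genomic probes and negative controls. Binding intensity is the highest Masliner-normalised natural-log median intensity across replicate spots of either probe orientation, measured with Alexa488 anti-GST antibody and a 488 nm scan.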

Sequence	gcPBM binding intensity (ln)
GAAATGGGTAAACATACACACACACCGATATATATA [CACACA_site8610]	9.87 ± 0.23
AAAAATTTCTATTTTTGTACTTACTTTTTAGTAATA [XGTACX_site5236]	8.41 ± 0.47
TAACAATTATGCTGGTGTACGTTTGAAATTGGGTAT [XGTACX_site6846]	8.89 ± 0.4
TACACAAGAAAATTCACACACACACCGATATATATA [CACACA_site6008]	9.87 ± 0.16
AAATCTTCATAATAAAGTACTTAACTCTTGGTGTTA [XGTACX_site6112]	8.52 ± 0.42
CTTATATTTGGACACACACACAATAAAATGAAAAAA [CACACA_site6614]	9.47 ± 0.37
AAAAAAAAAAAAAAAACATGCAGTTAGTGGTTTTTT [TGCATGCA_site243]	8.82 ± 0.4
AATAAATGGAAAAGGTGTACACAAAAAAAAGGGAAA [XGTACX_site4956]	9.36 ± 0.8
TATGAACTTTTGGGGGTGCCTTAAAATGTATATTCT	8.97 ± 0.23
ATATATATATAAAGCAGTACACACATTTATTTTAGA [XGTACX_site7226]	9.03 ± 0.35
TCCCAATTTATTATGTGTACTTATTATATACATATA [XGTACX_site4033]	8.79 ± 0.45
TATCAAAGTAGAAGAGATCGATGTCATATTGTGATG [GTGCAC_negctrl_site42]	9.01 ± 0.4
ATATTCTAAATAAAGGGTACACAAAAATAATTAAAG [XGTACX_site5529]	8.78 ± 0.45
ATTGTGGATATTCTTACACACAAATTTATATATAAA [CACACA_site2601]	8.74 ± 0.37
TTATGAATACTTCAAGTGCATTTATTTTATATGACA	8.63 ± 0.48
TATTTGTAATATTATACACACATTATGTATTACAAA [CACACA_site3386]	8.85 ± 0.34
TTTTGTATATTATATGTACACACAATAAGTTAATAT [CACACA_site8207]	8.85 ± 0.31
ATACACACATATATGTGTACATATACATATATATAT [XGTACX_site6744]	9.88 ± 0.32
ATAATATGAAGAAGCACACTCAATTAAATACAGATA [CACACA_site4690]	9.01 ± 0.39
AACAAAATAGGGAACACACACATGTCGATATATAAA [CACACA_site7265]	9.34 ± 0.46
AAGAATTATTTTTTATGTACTTATATGTCAATTTTC [XGTACX_site6676]	8.78 ± 0.43
ATAGAATATTTTATTACACACAGAATAATAAAAAAT [CACACA_site6190]	8.97 ± 0.35
TTATTTTTTTTAGCATATACAAATATATATATATAT [GTGCAC_negctrl_site4]	8.78 ± 0.2

Sequence	gcPBM binding intensity (ln)
CTAAAAGGATGATGAATGCACTATTATTTATATGGA	8.59 ± 0.43
TGAAATTTGTTATATGCATGTAAAATATTACGACGA [TGCATGCA_site201]	8.65 ± 0.44
TTGTGTGAGCAAGTAGTGCATAATATAAATAAAAAA [GTGCAC_site9802]	9.07 ± 0.49
CATAAATATTTGTGTTGTACAAATATATATATTTAT [XGTACX_site7363]	8.71 ± 0.32
AAAATTGAAGGTAGAAGTACATATTTATTTCAATAA [XGTACX_site8732]	8.51 ± 0.5
GAAGGAAATAAATCAACACACATATATTATATATAT [CACACA_site2188]	9.05 ± 0.48
TGTATTTATTAATGTACACACATGCGTATGTTCGTT [CACACA_site5892]	9.46 ± 0.34
TATATAATATATTTATGTACGTATTTAAAAATTTAT [XGTACX_site160]	8.43 ± 0.42
TATGTCCATATTTCCACACACATATTATTTTTATAT [CACACA_site3798]	9.3 ± 0.42
TATTAAAAAATTATATGTACACATTTGTTATATACA [XGTACX_site2232]	8.63 ± 0.4
ATAAAAAAATAAATAACACACAAAATTACACGAAAA [CACACA_site3620]	9.09 ± 0.36
AATTAAAGGAATTACAACTTTGCAAGCGCAACATAA [CACACA_negctrl_site1411]	8.56 ± 0.46
TTCTTTATATATGTTCGTACATATTATTATAATACA [XGTACX_site1549]	8.82 ± 0.53
TAATTTTCATGTTCATGTACTTAAATATAAGGTAAA [XGTACX_site3284]	8.27 ± 0.4
TGCCTTATTAAAAGAATTACACATATTTAATCGAAA [GTGCAC_negctrl_site153]	8.31 ± 0.39
ATTCATAACAAAAAAAGTACTCAAAATAATAATAAA [XGTACX_site6079]	8.58 ± 0.51
AAATATATTTTTAATAGTACAATATGAAAATTTCAT [XGTACX_site2562]	8.41 ± 0.39
AGTAATTATTTTAGAGTGCATAGTTTTTTAATAAAT	8.46 ± 0.45
CACCATGTTAACAATACATGCATCACTATATAAATG [TGCATGCA_site36]	8.78 ± 0.35
AAAAAAAAGGAAATAACACACATGTATATATTTATA [CACACA_site1606]	8.89 ± 0.42
GTACACATATATATATATATATATATATATATATAT [CACACA_negctrl_site800]	10.1 ± 0.34
TTTTTTTTTTTTTTTTGTACTCATACATACTATTAT [XGTACX_site989]	8.69 ± 0.55
TTTTTATTATTTTAAAGTACTCTTTAGTAATTCCCT [XGTACX_site5863]	8.54 ± 0.52

Sequence	gcPBM binding intensity (ln)
AAAAAACATACATACACACACATAAATATTTATATT [CACACA_site7300]	9.51 ± 0.31
CACAGATAAATTAACACACACACACCGATATATATA [CACACA_site6049]	10 ± 0.16
CGGAAAAATTAAAGCACACAAAAAAAAATAAAAAAA [CACACA_site1133]	9.02 ± 0.52
TTTTATTAATATTGCATGCACACTATATAATAATTG [CACACA_site1049]	9.21 ± 0.35
AATATTTCTTTAATTTGTACATATAAGGGAAAATAA [XGTACX_site6221]	8.24 ± 0.41
ATTTCTTCTTTTTTTGTGAAACTGGAATATATATAT [XGTACX_negctrl_site527]	8.7 ± 0.5
TCATTCTAAATATAAACACACATAAATAAATACATT [CACACA_site5788]	8.79 ± 0.33
ATATATATTTTAATAACACACATATATTATATTATA [CACACA_site4387]	8.7 ± 0.38
CTTAGGTGTTCATAGAGTACAAATAAAAAAATAAGA [XGTACX_site2294]	8.77 ± 0.46
TATATATATTATTATGCATGTAATAAAACAAATAAT [TGCATGCA_site625]	8.76 ± 0.33
ACGTTACATACATATACACACACATATATATATATA [CACACA_site8203]	9.93 ± 0.16
GATGTTTCTATTTTAGTGCATTTTAAATAAATAAAT	8.46 ± 0.35
GGTGGTGGTGGGTGGGTGCTTCTATTATTATATTAT [GTGCAC_site9391]	9.835 ± 0.035
ATATAGATCTATAATACACACTTATGAAATGTCTAA [CACACA_site6946]	8.9 ± 0.4
TTGTTTCCGATGAAAGAAAGGAAATTATAATATATC [GTGCAC_negctrl_site516]	8.43 ± 0.44
GTCTCCTTTATTTTTGGTACAGATAAGATAAAAGGA [XGTACX_site1591]	8.35 ± 0.4
GTGTTCATATATAGCCGTACATATGTCTTATGAACG [XGTACX_site5647]	8.86 ± 0.49
AATCAAAATATATCTACACACATTTAAGTAACCCAT [CACACA_site5846]	9.11 ± 0.38
TATAACATTATTTTGTGTACACATTCGGTTATATTA [XGTACX_site6310]	9.06 ± 0.49
TTTGTGCTTATCCTAACACACACAACATATAAGAAA [CACACA_site9091]	8.96 ± 0.35
ATATATATTTTTATAACACACAATGATGTACATTAC [CACACA_site1076]	8.99 ± 0.48
TGTGTAGCTAGGGGGTTGCTAATTTTTGTTTTGACC [CACACA_negctrl_site634]	9.41 ± 0.071
TTATATATACCATAATGTACTCTATTATATAAAAAA [XGTACX_site7464]	8.41 ± 0.4

Sequence	gcPBM binding intensity (ln)
TAAAATAATATTTATGTGCACATATAATTATTAATT	8.6 ± 0.35
AGAAAAAACAAAAGAGAAATGAAAAAAAAAAAAAAA [XGTACX_negctrl_site482]	8.51 ± 0.53
TTATGTTGCGAGTTCTTAAGATATAAAAAATTCTTC [GTGCAC_negctrl_site45]	8.51 ± 0.38
ATCATAACTTGATACGCACACGTTATATAAATAAAA [CACACA_site4955]	8.88 ± 0.4
TGAGAATAAAAAAAAGGGATTATTAGATTTCTCCTT [TGCATGCA_negctrl_site326]	8.41 ± 0.41
AAGACAAATTGTGACACACACAAAAAAAAAAAAAAA [CACACA_site3727]	9.25 ± 0.62
AAAAAAATAAGGTGCACACAAAAAAAAAAAAAAAAA [CACACA_site812]	9.11 ± 0.4
ATTCAATAAACGTATTGTACAAAAGAACGATATATT [XGTACX_site2533]	8.96 ± 0.33
TATTGGATCACACAAAAATGTATAAATAAATAGAAA [TGCATGCA_negctrl_site490]	8.71 ± 0.45
TACCTTATATTATATACACACATATAATATAATATA [CACACA_site1328]	8.78 ± 0.4
GATTCATTTCGTAATACACACAACAAATATTTCAAA [CACACA_site1772]	8.88 ± 0.39
AATGTAAATAAGTGTACACATATATAATACATACAT [CACACA_site4938]	9.2 ± 0.35
TAAAAAAAAATAAAAAGTACATATATATATATATAT [XGTACX_site1155]	9.69 ± 0.42
AATGGAAAAATAGGCACACACACATAAATACAGATA [CACACA_site4844]	9.85 ± 0.32
AATATGAAACAAGACGCACACATAAATAAATAAATA [CACACA_site326]	9.49 ± 0.42
AGTGCTACTCATGATTGAATAGAGGAAAAGGCGGTG [GTGCAC_negctrl_site49]	8.85 ± 0.52
CTTTAAATGATGTAAACACACACATATACATTATTA [CACACA_site9035]	9.1 ± 0.28
CACATAAAAAAATAAACACACATATGTATATAAATA [CACACA_site7483]	9.09 ± 0.48
CCATATTTAATAAAATGTACTCATTCTTTTATTTTA [XGTACX_site7802]	8.55 ± 0.46
CTGTTCAAAATATGAACACACACATATATATATATA [CACACA_site8638]	9.71 ± 0.17

From the supplement of paper PMC11417369
